Experimental data: PubChem BioAssay AID445 (National Center for Advancing Translational Sciences (NCATS), 2006)
Hit rate of the full screen: of about 110,000 compounds, about 40 (0.04%) were called active. This list was built around the results that the source calls inconclusive (neither active nor inactive); the mix of calls is not that of the screen. The call rests on the fitted dose curve; in most records, active means well fitted curve in the direction sought with a large enough effect in the signal ratio (not every such curve was filed as active); inconclusive means small, poorly fitted or top-dose-only effect, or a change in a side signal; inactive means flat fitted curve, though single readings scatter; the % refers to the signal ratio. A potency beside an inconclusive call is a rough fit, not a confirmed value.

test: IkB Signaling; details: ABC-DLBCL IkBa-CBG/CBR dual luciferase ratio (green luciferase fused to IkBa over red control in OCI-Ly3 lymphoma cells), 4 h; IkBa stabilization activation: at 57.1 µM (top of the series), scaled: untreated 0%, proteasome inhibitor 100% unless noted;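 on IkBa stabilization activation: 0% = basal untreated cells and 100% = reference inhibitor full response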
Outline: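 In this assay, an IκBα–CBG68 fusion accumulates when IKK-driven degradation is blocked; native CBR normalizes for cell number. OCI-Ly3 cells were treated 4 h with compound and doxycycline, then green and red light read after Chroma-Glo addition.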
Potency means the concentration at half of the fitted maximal effect.

Row | SMILES | IkBa stabilization activation | Potency
1 | O=C(CSc1nc(NS(=O)(=O)c2ccccc2)cc(=O)[nH]1)Nc1ccc(F)cc1 | inconclusive: 14.7% [signal inhibitor] | –
2 | COc1cc(/C=C/C(=O)CC(=O)/C=C/c2ccc(O)c(OC)c2)ccc1O | – | inconclusive: 5.01 µM [rising, partial curve]
3 | COc1ccc(-c2[nH]c(-c3ccc(O)cc3)nc2-c2ccccc2)cc1 | inconclusive: -5% [signal inhibitor] | –
4 | C=CCOC(=O)c1[nH]c2c(c1C)C(=O)CC(c1ccco1)C2 (stereo unspecified) | – | inconclusive: 10 µM [rising, partial curve]
5 | c1ccc(Cn2nnnc2CN2CCN(c3ncccn3)CC2)cc1 | inactive: -0.887% | –
6 | CC(CNC(=O)c1ccc2c(c1)nc1n2CCCCC1)c1ccccc1 (stereo unspecified) | inconclusive: 1.11% [signal inhibitor] | –
7 | COC(=O)c1nn(-c2ccc(-c3ccccc3)cc2)cc1O | inconclusive: 13.9% [signal inhibitor] | –
8 | COc1ccccc1-c1nn2c(=O)cc(CN3CCN(C(=O)Nc4ccc(C)cc4Cl)CC3)nc2s1 | inconclusive: -0.0453% [signal inhibitor] | –
9 | Cc1ccc(C2C(=O)N(C3CCC(C)CC3)CC(=O)N2C2CCCC2)cc1 (stereo unspecified) | inconclusive: 2.69% [signal inhibitor] | –
10 | Cc1cc(NS(=O)(=O)c2ccc(NC(=O)COc3c(C)ccc(C)c3C)cc2)nc(C)n1 | inconclusive: 8.5% [signal inhibitor] | –
11 | CCS(=O)(=O)N1CCc2cc(C(=O)Nc3ccc(Br)cc3F)ccc21 | – | inconclusive: 3.98 µM [signal inhibitor, full curve]
12 | CCc1cccc(C)c1NC(=O)c1ccc2c(c1)CCN2S(=O)(=O)c1ccc(Cl)cc1 | inconclusive: -0.747% [signal inhibitor] | –
13 | CC1CCN(C(=O)CSc2nnc(-c3cc4ccccc4cc3O)n2Cc2ccco2)CC1 | inconclusive: 3.79% [signal inhibitor] | –
14 | COc1ccc(N(Cc2cccs2)C(=O)c2ccco2)cc1 | inconclusive: -0.0325% [signal inhibitor] | –
15 | Cc1cc(C)cc(NC(=O)CCc2c(C)nc3nc(CNC(=O)c4cccc(F)c4)nn3c2C)c1 | inconclusive: 3.2% [signal inhibitor] | –
16 | COc1cccc(CN2C(=O)c3ccccc3Sc3ccc(C(=O)N(C)Cc4ccccc4)cc32)c1 | inconclusive: -0.497% [signal inhibitor] | –
17 | COc1ccccc1NC(=O)c1cc2ccc3cccnc3c2[nH]1 | inactive: 14.9% | –
18 | Cn1c(=O)c(-c2ccccc2)nc2cnc(Nc3ccccc3)nc21 | inactive: -6.09% [at 11.4 µM, scaled: untreated 0%, proteasome inhibitor 100%] | –
19 | C=CC1=C(C)C2=NC1=CC1=NC(=CC3=NC(=CC4=NC(=C2)C(C)=C4CCC(=O)O)C(CCC(=O)O)=C3C)C(C=C)=C1C.[Zn] | inactive: -0.315% | –
20 | COc1cccc2cc(-c3nc(Nc4cccc(C)c4)sc3C)c(=O)oc12 | inconclusive: 5.01% [signal inhibitor] | –
21 | COCCn1c(=O)c(CCc2ccccc2)nc2cnc(N3CCN(C)CC3)nc21 | inactive: -2.77% [at 11.4 µM, scaled: untreated 0%, proteasome inhibitor 100%] | –
22 | O=C(c1cccs1)c1cn(CCOc2ccccc2F)c2ccccc12 | inconclusive: 0.882% [signal inhibitor] | –

Row | SMILES | IkBa stabilization activation | Potency
23 | CC(C)c1ccc(S(=O)(=O)c2nnn3c2nc(N2CCN(C)CC2)c2sccc23)cc1 | inconclusive: -0.457% [signal inhibitor] | –
24 | CN(C)C(=O)c1ccc(-c2ccc3ncnc(N(C)C)c3c2)cc1 | inactive: -4.54% [at 11.4 µM, scaled: untreated 0%, proteasome inhibitor 100%] | –
25 | CC(=O)c1cccc(NC(=O)c2nc3ccccc3n(C)c2=O)c1 | inconclusive: 5.03% [signal inhibitor] | –
26 | CCOC(=O)c1ccccc1NC(=O)c1c2c(nc3ccccc13)C(=O)N(C1CCCCC1)C2 | inconclusive: 1.16% [signal inhibitor] | –
27 | CCOC(=O)C1CCCN(CC(=O)N2CCCc3c2c(=O)oc2ccc(OCc4ccccc4)cc32)C1 (stereo unspecified) | inconclusive: -3.57% [signal inhibitor] | –
28 | C=CCn1c(SCc2c(C)noc2C)nc2sc3c(c2c1=O)CCCCC3 | inactive: -0.283% | –
29 | COc1cc(OC)cc(C(=O)Nc2cc(-c3nc4cc(Cl)ccc4o3)ccc2Cl)c1 | – | inconclusive: 5.01 µM [signal inhibitor]
30 | O=C(NCc1ccc2c(c1)CCN2C(=O)c1ccccc1)c1cc2ccccc2[nH]1 | inactive: -0.673% | –
31 | CCc1ccc(NC(=O)c2sc3ncnc(N(C)C4CCCCC4)c3c2C)cc1 | inconclusive: -0.283% [signal inhibitor] | –
32 | CCn1c(-c2cc(Br)cc(OC)c2O)nc2cc(S(=O)(=O)N(C)C)ccc21 | inconclusive: 1.06% [signal inhibitor] | –
33 | COc1ccc(CNC(=O)Nc2ccc3c(c2)N(C)C(=O)c2ccccc2S3)cc1 | inconclusive: 2.59% [signal inhibitor] | –
34 | Cc1cc(-c2ccc(C)c(S(=O)(=O)NC(c3cccs3)C(C)C)c2)on1 (stereo unspecified) | inconclusive: 3.23% [signal inhibitor] | –
35 | O=C(Nc1ccccc1O)c1cc(S(=O)(=O)N2CCOCC2)c(Cl)cc1Cl | inconclusive: 2.72% [signal inhibitor] | –
36 | CCOC(=O)Nc1nnc(CCc2ccccc2)s1 | inconclusive: -5.29% [signal activator] | –
37 | CCc1nnc(SCc2c(F)cccc2Cl)c2cc3sccc3n12 | inconclusive: 2.64% [signal inhibitor] | –
38 | Cc1cc(C)nc(Sc2nc(C)nc3c2oc2ccccc23)n1 | inactive: 1.27% | –
39 | CC(C)CCNC(=O)c1ccc2c(c1)NC(=O)C(CS(=O)(=O)Cc1ccc(F)cc1)N2 (stereo unspecified) | inactive: -1.08% | –
40 | CC1=C(C(=O)N2CCN(c3cc(C)ccc3C)CC2)C2(CCC(C)CC2)OC1=O (stereo unspecified) | inconclusive: 3.02% [signal inhibitor] | –
41 | CCOC(=O)N1CCN(C(=O)c2cc(-c3ccc(OCC)cc3)nc3ccccc23)CC1 | inactive: -0.276% | –
42 | CCOC(=O)N1CCC(NC(=O)CSCc2nc(-c3sccc3C)oc2C)CC1 | inactive: 0.856% | –
43 | COc1ccc(C(=O)Nc2nc3nc(C)c(Cc4ccccc4)c(=O)n3[nH]2)cc1OC | inconclusive: 1.54% [signal inhibitor] | –
44 | CCCc1cc(=O)n2[nH]c(NC(=O)c3ccc(C(C)(C)C)cc3)nc2n1 | inconclusive: 2.07% [signal inhibitor] | –

Row | SMILES | IkBa stabilization activation | Potency
45 | O=C(Nc1cccc(F)c1)C1CCCN1S(=O)(=O)c1cccc2cccnc12 (stereo unspecified) | inconclusive: 17.1% [signal inhibitor] | –
46 | Cc1cccc(CNS(=O)(=O)c2ccc(-c3cnc(C4CC4)o3)cc2)c1 | inconclusive: 1.92% [signal inhibitor] | –
47 | CN(Cc1ccco1)c1ncncc1-c1ccccc1C(F)(F)F | inactive: 2.31% [at 11.4 µM, scaled: untreated 0%, proteasome inhibitor 100%] | –
48 | CCOC(=O)c1c(CN2CCCCC2)n(C)c2cc(Br)c(OC)cc12 | inactive: -0.281% | –
49 | O=C(O)c1oc2ccc(Br)cc2c1-n1cccc1 | inconclusive: 2.93% [signal inhibitor] | –
50 | COc1ccc(S(=O)(=O)Nc2cccc(-c3ccc(N4CCC(C)CC4)nn3)c2)cc1OC | – | inconclusive: 15.8 µM [signal inhibitor, partial curve]
51 | Cn1ccc2cc(S(=O)(=O)N3CCCC(C(=O)NCc4ccccc4)C3)ccc21 (stereo unspecified) | inconclusive: 1.88% [signal inhibitor] | –
52 | CCn1c(=O)c2cc(C(=O)Nc3cc(OC)c(OC)c(OC)c3)sc2c2ccccc21 | inconclusive: 4.08% [signal inhibitor] | –
53 | N#Cc1nc(Cc2ccccc2)oc1NCc1ccccc1Cl | inconclusive: 2.18% [signal inhibitor] | –
54 | Cc1ccc(Nc2nnc(-c3ccc(C)c(S(=O)(=O)N4CCOCC4)c3)c3ccccc23)c(C)c1 | inconclusive: 21.9% [signal inhibitor] | –
55 | CCC(Cc1ccccc1)NC(=O)Cn1ncc2c3ccccc3n(Cc3ccccc3)c2c1=O (stereo unspecified) | inconclusive: -0.265% [signal inhibitor] | –
56 | Cc1oc(-c2ccc(Cl)cc2)nc1CN1CCC(C(=O)NCCCN2CCN(c3cccc(Cl)c3)CC2)CC1 | inconclusive: -3.34% [signal inhibitor] | –
57 | Cc1ccc(-c2nc3nc4ccccc4nc3n2Cc2ccco2)cc1 | – | inconclusive: 3.98 µM [signal inhibitor, partial curve]
58 | Cn1c(=O)[nH]c(=O)c2c1nc(N1CCCCC1)n2CCCSc1nc2ccccc2s1 | inactive: 0.0642% | –
59 | CC(C)c1ccc(OC(=O)c2cc(-c3ccc(Cl)cc3)on2)cc1 | inactive: -0.798% | –
60 | Cc1ccc(-n2ncc3c(NCCCn4ccnc4)ncnc32)cc1Cl | inconclusive: -1.03% [signal inhibitor] | –
61 | COC(=O)c1cnc(NCc2ccc(F)cc2)c2ccccc12 | inconclusive: 1.92% [signal inhibitor] | –
62 | Cc1cc(F)ccc1S(=O)(=O)Nc1ccc2c(c1)CCCN2C(=O)c1cccs1 | inconclusive: 5.55% [signal inhibitor] | –
63 | COc1ccc(N2C(=O)C(CC(=O)Nc3ccc(F)cc3)N(Cc3ccc4c(c3)OCO4)C2=O)cc1 (stereo unspecified) | inconclusive: 0.471% [signal inhibitor] | –
64 | CCN(CC)C(=O)Cn1c(=O)nc(-c2ccccc2F)c2cc(Cl)ccc21 | inconclusive: 0.358% [signal inhibitor] | –
65 | COc1nc(-c2ccccc2)ccc1-c1noc(-c2cccs2)n1 | inactive: 4.45% | –
66 | COc1ccc(-n2c(=O)c3sc4ccccc4c3n(CC(=O)Nc3ccccc3F)c2=O)cc1 | – | inconclusive: 39.8 µM [signal activator, single point]
